Toxic doses and inconclusive results are not listed. A number of entries come with more than one value. They are shown here; other results are not. An entry can have further records. The values listed for one entry are repeated measurements (runs, samples, wells, individuals or studies). Marks in square brackets tell the records apart. The letters are not those of the source and start again with each entry.

For this assay, the system named is P388 leukemia ip, CD2F1 mice, survival T/C. Briefly: NCI In Vivo Anticancer Drug Screen. Data for tumor model P388 Leukemia (intraperitoneal) in CD2F1 (CDF1) mice. Conditions: endpoint: median survival time, higher = longer survival.
Setting [1] is: dose: 200.0 mg/kg/injection, schedule: Q04DX003 (ip), vehicle: saline with Tween-80.

In the case of `C=C1C(O)C2(O)OCC34C(CC5C(C)=CC(=O)C(O)C5(C)C23)OC(=O)C(OC(=O)C(C)(O)CC)C14` (centres undefined), where the note is “dose: 2.0 mg/kg/injection, schedule: Q01DX009 (ip), vehicle: saline + alcohol”, the T/C is 114 % of control and 154 % of control. `N#Cc1ccc(NC(=O)Nc2nccs2)cc1`: the T/C (dose: 100.0 mg/kg/injection, schedule: Q01DX009 (ip), vehicle: distilled water + Tween-80) is reported as 90 % of control, 108 % of control, 170 % of control. For the molecule `CCN(CC)CCNc1ccc(CO)c2oc3ccc(O)cc3c(=O)c12`, the T/C (dose: 200.0 mg/kg/injection, schedule: Q01DX005 (ip), vehicle: saline with Tween-80) is 121 % of control and 163 % of control. For the molecule `CC(=O)OC(C(=O)O)N1C(=O)C2C3C=CC(C2C1=O)C1C2C(=O)N(C(OC(C)=O)C(=O)O)C(=O)C2C31` (centres undefined), the T/C (dose: 200.0 mg/kg/injection, schedule: Q01DX009 (ip), vehicle: water) is 121 % of control and 175 % of control.

Consider `Nc1cc2[nH]cnc2c(=O)[nH]1`, for which the T/C (dose: 50.0 mg/kg/injection, schedule: Q01DX009 (ip), vehicle: suspension in saline) is given as 100 % of control, 118 % of control, 150 % of control.

Turning to `CCCSc1ccc2nc(NC(=O)OC)[nH]c2c1`, the T/C (dose: 240.0 mg/kg/injection, schedule: Q01DX005 (ip), vehicle: saline with Tween-80) is 120 % of control and 157 % of control. With `COc1cccc2c1C(=O)c1c(O)c3c(c(O)c1C2=O)C[C@@](O)(/C(CO)=N/NS(=O)(=O)c1ccc(C)cc1)C[C@@H]3OC1CC(N)C(O)C(C)O1` (some centres undefined), where the note is “dose: 6.25 mg/kg/injection, schedule: Q01DX009 (ip), vehicle: water”, the T/C was 116 % of control and 171 % of control. Take `COc1cc2cc[n+]3c(C)c4ccc(OC)c(OC)c4cc3c2cc1OC` (tested in a mixture with another compound): the T/C (dose: 60.0 mg/kg/injection, schedule: Q01DX009 (ip), vehicle: saline) was 107 % of control and 150 % of control. In the case of `CNC(=O)OCc1c(COC(=O)NC)c(-c2ccc(Cl)c(Cl)c2)n(C)c1C`, the T/C (dose: 25.0 mg/kg/injection, schedule: Q01DX009 (ip), vehicle: distilled water + Tween-80) was 117 % of control and 163 % of control.

Regarding `COc1cc(C2c3cc4c(cc3CC3COC(=O)N32)OCO4)cc(OC)c1OC` (centres undefined), the T/C (dose: 30.0 mg/kg/injection, schedule: Q01DX005 (ip), vehicle: Klucel (hydroxypropylcellulose) (HPC)) is reported as 108 % of control, 111 % of control, 151 % of control. For the molecule `COc1cccc2c1C(=O)c1c(O)c3c(c(O)c1C2=O)C[C@@](O)(C(=O)CN1CCN(C)CC1)C[C@@H]3OC1CC(N)C(O)C(C)O1` (some centres undefined), the T/C (dose: 12.5 mg/kg/injection, schedule: Q01DX009 (ip), vehicle: water) is 100 % of control and 159 % of control.

As to `CCCCCCCCCCCC(=O)NCC(=O)NC1C(C)OC(Nc2ncnc3nc[nH]c23)C(O)C1O` (centres undefined), the T/C (dose: 2.0 mg/kg/injection, schedule: Q01DX009 (ip), vehicle: other) is 118 % of control and 150 % of control. For `COC(=O)[C@@]12OC[C@]34[C@H]([C@@H](O)[C@@H]1O)[C@@]1(C)CC(=O)C(O)=C(C)[C@@H]1C[C@H]3OC(=O)[C@H](OC(=O)/C=C(\C)C(C)CO)[C@@H]24` (some centres undefined), the T/C (dose: 1.0 mg/kg/injection, schedule: Q01DX009 (ip), vehicle: saline + alcohol) is 121 % of control and 155 % of control.

Take `COc1ccc2c(c1O)-c1cccc3c1[C@@H](C2)N(CCCl)CC3`: the T/C (dose: 50.0 mg/kg/injection, schedule: Q04DX003 (ip), vehicle: other) was 97 % of control and 157 % of control. Take `CCOC(=O)C(Cc1ccccc1)NC(=O)N(CCCl)CCCl` (centres undefined): where the note is “dose: 100.0 mg/kg/injection, schedule: Q04DX003 (ip), vehicle: saline with Tween-80”, the T/C was 109 % of control and 154 % of control. Turning to `ClCCN(CCCl)c1ccc(CCN2CCOCC2)cc1`, the T/C (dose: 50.0 mg/kg/injection, schedule: Q01DX009 (ip), vehicle: saline) is 106 % of control and 151 % of control. As to `O=C1CCC(n2cc(F)c(=O)[nH]c2=O)O1` (centres undefined), the T/C under setting [1] is on record as 98 % of control, 104 % of control, 178 % of control.

Consider `Nc1nc2c(ncn2C2OC(CO)C(O)C2O)c(=O)[nH]1` (centres undefined), for which the T/C under setting [1] was 100 % of control [sample A] and 187 % of control [sample B]. `NC(CCC(=O)NC(CSC(c1ccccc1)(c1ccccc1)c1ccccc1)C(=O)NCC(=O)O)C(=O)O` (centres undefined): the T/C (dose: 240.0 mg/kg/injection, schedule: Q01DX005 (ip), vehicle: Klucel (hydroxypropylcellulose) (HPC)) is 123 % of control and 153 % of control.

For the origin of these results see PubChem BioAssay AID330 (DTP/NCI, 2004).
